Data reported in PubChem BioAssay AID2546 (National Center for Advancing Translational Sciences (NCATS), 2010).
The whole screen tested about 310,000 compounds, of which about 11,000 (3.5%) were called active. The inconclusive results got no clear call from the source; some entries with a clear call stand among them for comparison. The call rests on the fitted dose curve; in most records, active means well fitted inhibition curve with a large enough effect; inconclusive means small, poorly fitted or top-dose-only effect, or effect the other way; inactive means flat fitted curve, though single readings scatter. Potencies of inconclusive entries are left out as doubtful fits.

test: VP16 counterscreen qHTS for inhibitors of ROR gamma transcriptional activity; details: Drosophila S2 Gal4-VP16 UAS-luciferase, luminescence, 20 h; series mostly up to 53.6 µM;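 further: Gal4-VP16 expression switched on by copper sulfate through the metallothionein promoter; nearly all actives have a fitted effect of over 50% in size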
Potency means the concentration at half of the fitted maximal effect; tags describe the fitted curve by direction and shape.

Compound | Potency
O=C1c2ccccc2C(=O)N1CCCCN(C(=O)c1ccc([N+](=O)[O-])cc1)c1ccc(Cl)cc1 | inconclusive [inhibitor, single point]
O=C(NCCS(=O)(=O)N1CCN(c2cccc(Cl)c2)CC1)c1cc(=O)c2ccccc2o1 | inactive
CCc1ccc(C(=O)/C=C/c2cnn(C)c2C)s1 | active: 8.91 µM
CC(OC(=O)CCc1nc2ccccc2c(=O)[nH]1)C(=O)c1ccc(C(C)(C)C)cc1 (stereo unspecified) | active: 5.62 µM
Cc1ccc(NC(=S)NC(C)CCc2ccccc2)cc1C (stereo unspecified) | active: 6.31 µM
Cc1ccc(S(=O)(=O)Nc2ccc3c(c2)c2c(n3S(=O)(=O)c3ccc(C)cc3)CCCC2=O)cc1 | inconclusive [activator, single point]
CCN(CC)CCSc1nnc2c3ccccc3n(CCc3ccccc3)c2n1 | inactive
Cc1ccc(S(=O)(=O)Oc2ccc(/C=C3/N=C(c4ccccc4)OC3=O)cc2)cc1 | inconclusive [activator, single point]
COc1ccc(-c2c(C)sc(NC(=O)c3ccnn3C)c2C#N)cc1 | inconclusive [inhibitor, single point]
CCCNC(=O)c1nn2cc(Br)cnc2c1Br | inactive
CCn1c(COc2ccccc2)nc2ccccc21 | inconclusive [inhibitor, single point]
CCc1ccc2nc(/N=C(\N)NC(=O)c3ccccc3)nc(C)c2c1 | inactive
CCN=C1S/C(=C\c2sccc2C)C(=O)N1CC | inconclusive [activator, partial curve]
COCCCNc1oc(COc2ccc(Cl)cc2Cl)nc1C#N | inconclusive [inhibitor, single point]
COc1cc2c(cc1NC(=S)Nc1cccc(C)c1)oc1ccccc12 | inconclusive [inhibitor, single point]
O=C(N1CCN(c2ccccc2)CC1)C12CC3CC(CC(C3)C1)C2 | inactive
O=C(CC1S/C(=N/N=C/c2cccs2)NC1=O)Nc1ccc(Cl)cc1 (stereo unspecified) | inconclusive [inhibitor, single point]
Cc1ccc(N2CCN(C(=S)Nc3ccccc3C)CC2)cc1 | inconclusive [inhibitor, single point]
O=C1S/C(=C\C=C\c2ccco2)C(=O)N1c1ccc(O)cc1 | inactive
O=C(COc1cccnc1[N+](=O)[O-])N1CCc2ccccc2C1 | inconclusive [activator, single point]
COc1cccc2sc(Nc3nc(C)c(C(C)=O)s3)nc12 | inconclusive [inhibitor, partial curve]
